From PubChem BioAssay AID686978 (National Center for Advancing Translational Sciences (NCATS), 2013)
Among all 420,000 compounds or so, about 64,000 (15%) were called active. The shares of active, inactive and inconclusive entries below differ from those in the screen. The call rests on the fitted dose curve; in most records, active means well fitted inhibition curve with a large enough effect; inconclusive means small, poorly fitted or top-dose-only effect; inactive means flat fitted curve, though single readings scatter. Potencies of inconclusive entries are left out as doubtful fits.

test: qHTS for Inhibitors of human tyrosyl-DNA phosphodiesterase 1 (TDP1): qHTS in cells in absence of CPT; conditions: DT40 Tdp1-/- hTDP1 cells, no CPT, ATP luminescence, 48 h; activity change, negative = growth inhibition: at 46.2 µM (top of the series) unless noted; further: nearly all actives have a fitted effect of over 55% in size
Outline: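 Compound effects on proliferation are scored in DT40 Tdp1-/-;hTDP1 cells in the absence of CPT. ATP levels (CellTiter-Glo luminescence) are recorded after a ≥48 hr, 37 °C incubation.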
On the % scale 0 is the no-effect control and ±100 the full control effect; potency means the concentration at half of the fitted maximal effect; tags describe the fitted curve by direction and shape.

SMILES	Potency	activity change, negative = growth inhibition
COc1cccc(NC(=O)c2sc3nc(C)c(C(=O)Nc4ccc(C)cc4C)c(-c4ccccc4Cl)c3c2N)c1	inconclusive [inhibitor, partial curve]	
CC(=O)c1cccc(NC(=O)NNC(=O)c2ccc(Cl)cc2Cl)c1	inconclusive [inhibitor, partial curve]	
Cc1ccc(NC(=S)Nc2cc(C(=O)O)ccc2N2CC3CC(C2)c2cccc(=O)n2C3)cc1C (stereo not drawn)		inconclusive: -35.6% [inhibitor]
CN(C(=S)NC(=O)c1ccc(Cl)cc1)C1CCCCC1	inconclusive [inhibitor, single point]	
Oc1ccc2ccccc2c1C=Nc1ccc(N2CCOCC2)cc1	inactive	
O=C(NCC(c1ccco1)N1CCN(c2ccccc2)CC1)OCc1ccccc1 (stereo not drawn)	inconclusive [inhibitor, single point]	
Cc1ccc([N+](=O)[O-])cc1NC(=S)NCCc1ccccc1	inactive	
CCOc1ccc(OCC)c(NC(=O)C2CCCN(C(=O)c3ccc(Cl)cc3)C2)c1 (stereo not drawn)	inconclusive [inhibitor, single point]	
COc1cc(/C=N/NC(=O)[C@H](Cc2c[nH]c3ccccc23)NC(=O)OCC(C)C)cc([N+](=O)[O-])c1O	inconclusive [inhibitor, single point]	
Cc1ccc(NC(=O)c2ncn(CC(=O)N[C@H](C)c3cccc4ccccc34)n2)cc1C	inconclusive [inhibitor, partial curve]	
Cc1ccc(C(=O)NCCN2C3=NC[C@H](C)N3C[C@H]2Cc2ccc(O)cc2)cc1Br	active: 20.6 µM	
CCn1c(CN(C)c2ccccc2)nc2ccccc21	inconclusive [inhibitor, single point]	
Cc1nn(-c2ccccn2)c2c1C(=O)CC(C)(C)C2Br (stereo not drawn)	inconclusive [inhibitor, single point]	
COc1ccc(C=O)cc1CSc1ccccn1	inactive	
CC(C)(C)c1cc(Cl)ccc1OCCn1ccnc1	inconclusive [inhibitor, single point]	
Cc1cccc(NC(=O)c2cccc([N+](=O)[O-])c2O)c1C	active: 13 µM	
COc1ccc(C)cc1NC(=O)CN(Cc1nnc(-c2ccc(Cl)cc2)o1)C1CCCC1	inconclusive [inhibitor, single point]	
Cc1onc(-c2ccccc2)c1C(=O)NNC(=S)NC(=O)c1ccc2c(c1)OCO2	active: 1.64 µM	
COC(=O)C1=C(c2ccccc2)c2ccccc2S(=O)(=O)N1CC(=O)Nc1cccc(C(C)=O)c1	inconclusive [inhibitor, single point]	
CCCc1ccc(-c2csc(NC(=O)C3=COCCO3)n2)cc1	inconclusive [inhibitor, single point]	
Cc1ccc(CCNC(=O)c2ccc(NC(=O)N3CC(C)Sc4ccccc43)cc2)cc1 (stereo not drawn)	inconclusive [inhibitor, single point]	
COc1ccc(N2CCN(C(CNC(=O)OCc3ccccc3)c3ccco3)CC2)cc1 (stereo not drawn)	inconclusive [inhibitor, partial curve, poor fit]	

SMILES	Potency	activity change, negative = growth inhibition
Cc1ccc(CCc2nnc(SCC(=O)Nc3cc(Cl)ccc3Cl)n2-c2ccccc2)o1	inconclusive [inhibitor, single point]	
CCCCCC(=O)N1C[C@H](O)[C@@H](n2cc(COC(=O)c3ccccc3)nn2)C[C@@H]1c1ccc(C)cc1	active: 0.82 µM	
CCCCN(C(C)=O)c1ccc2c(c1)C1CC2CCN1C(=O)OCc1ccccc1 (stereo not drawn)	active: 3.66 µM	
COc1ccc(CNC(=O)COc2ccc(F)cc2)cc1	inactive	
CCn1cc(C(=O)N2CCN(c3cccc(C)c3C)CC2)c(=O)c2ccc(C)nc21	inconclusive [inhibitor, single point]	
N#Cc1ccc(Oc2ccc(C(F)(F)F)cc2NC(=O)c2ccc(F)cc2)cc1	inconclusive [inhibitor, single point]	
O=C(Nc1ccc2ccccc2c1)c1cccc2ccccc12	inconclusive [inhibitor, single point]	
CCCCCCSC1=C(C#N)C(=O)NC2(CCCCC2)S1	inactive	
CC(C)(C)Nc1nc(OCC#N)nc(N2CCCCC2)n1	inconclusive [inhibitor, single point]	
c1cncc(-c2noc(-c3ccco3)n2)c1	inconclusive [inhibitor, partial curve, poor fit]	
O=S(=O)(c1ccc(Br)cc1)c1nc(-c2ccco2)oc1SCc1ccccc1Cl	inconclusive [inhibitor, single point]	
COc1ccc(Nc2nc(NC(C)(C)C)nc(N3CCOCC3)n2)c(OC)c1	inconclusive [inhibitor, single point]	
CCN(CC)S(=O)(=O)c1ccc2c(c1)nc(SCc1nc3ccsc3c(=O)[nH]1)n2CC	inconclusive [inhibitor, partial curve, poor fit]	
COc1ccc(CN2CCCC(c3nc(-c4ccncc4)ncc3-c3ccccc3)C2)c(OC)c1OC (stereo not drawn)	inactive	
O=C(CSc1ncccc1-c1nc2ccccc2[nH]1)NC1CC1	inactive	
CCOC(=O)C1CCN(c2cc3c(cc2NC(=O)c2ccccc2OCC)n(C)c(=O)n3C)CC1	active: 5.8 µM	
CCn1c(SCC(=O)c2cc(C)n(-c3ccc(C(=O)OC)cc3)c2C)nnc1-c1cccnc1	inconclusive [inhibitor, single point]	
Cc1nc2nc(NC(=O)c3cccc(Cl)c3)[nH]n2c(=O)c1Cc1ccccc1	inconclusive [inhibitor, single point]	
Cc1cccc(C)c1OCc1cc(C(=O)N2CCC(C3CCCCC3)C2)no1 (stereo not drawn)	inconclusive [inhibitor, single point]	
CCCCn1c(SCC(=O)NC2CC2)nnc1-c1ccncc1	inactive	
CCC(C(=O)N1CCN(c2cccc(C)c2C)CC1)n1nc(C)c2sc3ccccc3c2c1=O (stereo not drawn)	inactive	
